How the values were obtained:
α11β1 I Domain = molecular target: T1, α11β1 I Domain (Homo sapiens, UniProt Q9UKX5); test: ELISA binding to in-house generated α11β1 I domain; design: An in-house generated I domain of α11β1 was used; made in house; conditions: in words
T1 sequence (Q9UKX5 164-345 limits assumed): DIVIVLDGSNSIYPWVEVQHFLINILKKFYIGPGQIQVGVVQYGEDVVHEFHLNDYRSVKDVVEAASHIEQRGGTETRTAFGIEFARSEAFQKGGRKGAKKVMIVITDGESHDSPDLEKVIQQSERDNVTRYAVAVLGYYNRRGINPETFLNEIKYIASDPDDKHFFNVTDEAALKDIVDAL
Description: 0.25 μg/mL of target antigen (recombinant human or mouse α11β1) was plated in a 96-well plate over night at 4° C. Plates were washed (PBS with 0.1% Tween-20), blocked (PBS with 2% BSA and 0.05% Tween-20) for 1 hour at room temperature and incubated with a range of antibody concentrations for 1 hour at room temperature. Subsequently, plates were washed and incubated with biotinylated anti-rabbit/mouse/human IgG in a 1:1000 dilution buffer and incubated for 1 hour at room temperature. After washing the plates, Streptavidin HRP was added at 1:200 in dilution buffer and incubated for 1 hour at room temperature. Ultra TMB ELISA substrate solution was added and the plates incubated for 5 minutes on a plate shaker. The reaction was stopped by adding stop solution to each well and plates were read at 450 nm.
Data was also collected to determine whether antibodies of interest bind to the I domain of α11β1. An in-house generated I domain of α11β1 was used. […] Mouse antibodies 10-F23, 10-L15, 7-O8, 6-A12, 9-G05 and 9-E16 and rabbit antibodies 7-H12 and 2-D3 were also tested for binding against the in-house generated α11β1 I domain. FIGS. 3A and 3B show graphs illustrating binding data from exemplary mAbs.

[1] = molecular target: T2, adhesion of CHO-K1 cells expressing human α11 to rat tail type I collagen (Homo sapiens, UniProt Q9UKX5); test: Cell adhesion inhibition (CHO-K1 hu α11 cells to type I collagen, xCelligence); assay type: cell-based; conditions: in words
T2 construct: expressed in transfected cells; host or cells: CHO-K1
T2 sequence (Q9UKX5 23-1188): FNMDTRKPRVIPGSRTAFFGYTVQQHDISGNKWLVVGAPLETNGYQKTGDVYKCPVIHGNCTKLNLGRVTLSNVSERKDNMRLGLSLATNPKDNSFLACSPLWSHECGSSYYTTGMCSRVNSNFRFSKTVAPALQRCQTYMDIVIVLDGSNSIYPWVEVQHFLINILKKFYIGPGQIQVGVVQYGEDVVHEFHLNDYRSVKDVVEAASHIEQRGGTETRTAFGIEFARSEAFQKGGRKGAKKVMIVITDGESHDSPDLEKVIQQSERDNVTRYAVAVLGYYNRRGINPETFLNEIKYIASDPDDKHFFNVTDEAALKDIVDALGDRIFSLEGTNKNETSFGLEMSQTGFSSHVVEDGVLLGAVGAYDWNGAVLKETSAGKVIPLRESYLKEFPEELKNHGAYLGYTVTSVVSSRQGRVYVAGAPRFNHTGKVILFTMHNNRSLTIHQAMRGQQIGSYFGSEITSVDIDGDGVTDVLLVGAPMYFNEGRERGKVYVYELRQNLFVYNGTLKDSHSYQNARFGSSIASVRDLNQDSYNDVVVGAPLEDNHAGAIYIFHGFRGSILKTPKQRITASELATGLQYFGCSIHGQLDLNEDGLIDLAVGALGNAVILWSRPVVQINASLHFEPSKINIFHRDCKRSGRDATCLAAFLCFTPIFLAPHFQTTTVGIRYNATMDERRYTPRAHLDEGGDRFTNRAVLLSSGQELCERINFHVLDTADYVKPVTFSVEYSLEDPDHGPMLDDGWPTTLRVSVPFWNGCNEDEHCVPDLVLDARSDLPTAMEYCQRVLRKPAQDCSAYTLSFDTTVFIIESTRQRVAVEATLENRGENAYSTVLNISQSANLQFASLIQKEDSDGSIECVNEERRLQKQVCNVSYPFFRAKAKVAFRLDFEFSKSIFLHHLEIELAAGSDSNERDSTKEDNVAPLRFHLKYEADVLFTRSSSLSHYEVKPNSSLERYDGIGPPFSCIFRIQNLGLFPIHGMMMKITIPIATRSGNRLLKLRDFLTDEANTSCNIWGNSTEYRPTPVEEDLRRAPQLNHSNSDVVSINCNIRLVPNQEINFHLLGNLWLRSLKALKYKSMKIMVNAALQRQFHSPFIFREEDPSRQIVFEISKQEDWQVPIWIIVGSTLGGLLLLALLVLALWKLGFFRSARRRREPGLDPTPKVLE
Description: 0.6×10^6 cells/mL were incubated with each antibody at a range of concentrations for 20 minutes at 37° C. E-Plate VIEW 96 PET plate coated with 100 ng/ml type I collagen or PBS overnight at room temperature was blocked in 3% BSA for 1 house at room temperature. After washing the plate with PBS, cell and antibody mixture was added to the wells and the plate was places into an xCelligence machine. Cell adhesion was recorded over 6 hours. The time point of maximum cell adhesion was used for comparison relative to control.
A CHO-K1 hu α11 cell line was used to assess the ability of mAbs to block α11β1-mediated binding to type I collagen. […] In the “Untreated” condition, cells were plated on type I collagen but no antibody was added and in the “Uncoated” condition, cells were seeded onto BSA-coated wells containing no type I collagen. Statistics were performed using one-way ANOVA followed by Dunnett's multiple comparisons test. […] Therefore, it is possible that these mAbs bind on an α11β1 domain that keeps the integrin in a low or intermediate affinity state. […] Nine human mAbs were also tested for their ability to inhibit the binding of human CHO-α11 cells to type I collagen.

B1: 8-G15: mouse anti-α11β1 mAb; VH SEQ ID NO: 107, VL SEQ ID NO: 108 (antibody, V domains shown)
VH: EVQLQQSGPELVKPGASVRISCKASGYTFTDYYIHWVKQKPGQGLECIGEIYPGTDNTYYSKKFRGKATLTADKSSDTAYMQLSSLTSEDSAVYFCARGDYYRGYFDVWGAGTTVTVSS
VL: DVVMTQTSLTLSVTIGQPASISCKSSQSLLHSNGKTYLNWLLQRPGQSPKFLIYLVSKLESGVPDRFSGSGSGTDFTLKISRVEAEDLGVYYCLQSTHFPWTFGGGTKLEIK
- Binding to the I domain of α11β1 (α11β1 I Domain): not found to bind the I-domain
- Inhibition of cell adhesion to type I collagen [1]: decrease cell adhesion to collagen

From patent US20240317865A1, “ANTIBODIES AGAINST INTEGRIN ALPHA 11 BETA 1” (MOMENTA PHARMACEUTICALS, INC., priority 2020, published 2024)
